Results on 82 compounds are retold here after ChEMBL document CHEMBL1201862, “PubChem BioAssay data set” (2004).

Where “and” joins values, the source holds several entries; their conditions need not be identical. Equal values may be shown once.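 48-hour exposure; five concentrations; linearly interpolated endpoints. GI50 = concentration required for 50% inhibition of growth.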 Calls of active or inactive are those of the source. No stated cut-off is given here; in the data, active = GI50 up to about 1.1 µM and inactive = higher.

The subject of the assay is NCI-H322M. Put plainly: NCI anticancer screen, dose series, 48 h.
Turning to `O=C1CN2CCN(CC2)CC(=O)Nc2ccc(cc2)S(=O)(=O)c2ccc(cc2)NC(=O)CN2CCN(CC2)CC(=O)Nc2ccc(cc2)S(=O)(=O)c2ccc(cc2)N1`, the GI50 was inactive: > 100 µM. For the compound `COc1ccc(C(=O)NCCC2=CCCCC2)cc1`, the GI50 is inactive: > 100 µM.

On to `NS(=O)(=O)c1cc(C(=O)O)c(O)c2ccccc12`, for which the GI50 was inactive: > 100 µM.

As for `CN1c2ccc(Cl)cc2C(=O)NC1c1ccc([N+](=O)[O-])s1` (configuration not stated), the GI50 is inactive: 24.5 µM. Under `CCCOc1cc2c(cc1O)CC[C@@H]1[C@@H]2CC[C@]2(C)[C@@H](O)CC[C@@H]12` stands inactive: 5.69 µM; under `O=C1C=CC2(C=C1)O[C@H](Cc1ccccc1)[C@@H](Cc1ccccc1)O2`, inactive: 12 µM; under `Cc1ccc(NC(=S)N/N=C2\C(=O)Nc3ccccc32)cc1`, inactive: > 100 µM. Take `CC(=C\c1ccccc1)/C=C(\C#N)C(N)=O`: the GI50 is inactive: > 10 µM. Consider `CCOC(=O)c1cnn2c1ncc1c(=O)n(NC(N)=O)ccc12`, for which the GI50 is inactive: > 100 µM. Take `COc1ccc(/C=C\c2cc(OC)c(OC)c(OC)c2)cc1OC(=O)CC(N)C(=O)O` (configuration not stated): the GI50 is active: 0.00432 µM. Consider `CC(=O)C(C)CCOC1(C)OCCC1C` (configuration not stated), for which the GI50 was inactive: > 100 µM. For `CC(=O)OC1OC(C2c3cccc(O)c3C(=O)c3c(O)cc(CO)cc32)C(O)C(O)C1O` (configuration not stated), the GI50 was inactive: 5.62 µM and inactive: 4.91 µM. As to `O=C(OC1=CCN(Br)C1=O)C1=C(O)C(=O)N(Br)C1`, the GI50 was inactive: 42.9 µM.

In the case of `C[C@]12CC[C@H](O)CC1=CC[C@@H]1C2CC[C@]2(C)c3nn(-c4ccc(F)cc4)nc3CC12` (some centres not stated), the GI50 was inactive: 47 µM.

For `Cc1cccc2nc3c(C(=O)NCCN(C)C)cccc3cc12`, the GI50 is inactive: 1.43 µM.

Take `N#C/C(C(=O)NCc1ccccc1)=C(/N)N1CCCC1`: the GI50 is inactive: > 100 µM. Consider `CCOc1cc2c[n+](C)c3c4cc(OC)c(OC)cc4ccc3c2cc1OC`, for which the GI50 was inactive: > 100 µM.

As to `Cc1ccc(C(=O)/C=C2\Nc3ccccc3NC2=O)cc1`, the GI50 is inactive: 5.75 µM.

For the compound `O=C(CC(C(=O)c1ccco1)c1ccco1)c1ccco1` (configuration not stated), the GI50 is inactive: > 100 µM. With `COc1cc2c[n+](C)c3c4cc(OC)c(OC)cc4ccc3c2cc1OC`, the GI50 was inactive: > 100 µM.

Take `COc1ccc(/C=C2\CC3C4CC=C5C[C@@H](O)CC[C@]5(C)C4CC[C@]3(C)C2=O)cc1OC` (some centres not stated): the GI50 is inactive: > 100 µM. `O=C(Cn1c(-c2ccccc2)cc2ccccc21)N1CCOCC1`: the GI50 was inactive: > 100 µM. As for `CC(=O)c1cccc(C)c1C(=O)O`, the GI50 is inactive: > 100 µM. Take `CC/C(=C/OC)P1(=O)OC(C)(C)CN1C(C)(C)C` (configuration not stated): the GI50 was inactive: > 100 µM. Under `COC(=O)C(CC=O)C(=O)C(=O)Nc1cccc(C(F)(F)F)c1` (configuration not stated) stands inactive: > 100 µM; under `C=C1c2nc3ccccc3n2C=C(c2ccccc2)N1c1ccc(Cl)cc1`, inactive: 53.7 µM; under `Cc1cccc(C)c1NC(=O)C(=O)CC(=O)c1cccc([N+](=O)[O-])c1`, inactive: > 100 µM. Take `Cc1nc2c(sc3nc4ccccc4n32)c(=O)[nH]1`: the GI50 is inactive: > 100 µM. As to `Nc1ccccc1C(=O)CCC1C(=O)NC(=S)NC1=O`, the GI50 was inactive: > 100 µM. Take `N#Cc1c(NC(=S)NC(=O)c2ccccc2)nc2c(c1-c1ccccc1)CCCC2`: the GI50 is inactive: > 100 µM. As to `O=C1CC(c2ccc(Cl)cc2)C2(C(=O)NC(=O)NC2=O)C(c2ccc(Cl)cc2)C1` (configuration not stated), the GI50 is inactive: 18.1 µM.

On to `O=C(Nc1c(O)[nH]c(=S)[nH]c1=O)c1ccccn1`, for which the GI50 is inactive: > 100 µM. Turning to `O=C1CCC(=O)c2c1c(O)c1ccncc1c2O`, the GI50 is inactive: 27.8 µM. Under `CCOC(=O)c1nc2cc(C(F)(F)F)ccc2nc1Nc1ccc(F)cc1` stands inactive: 54.8 µM; under `COc1ccc(-c2nc(SCC(=O)N/N=C/c3ccc(O)c(OC)c3)[nH]c2-c2ccc(OC)cc2)cc1`, inactive: 40 µM.

As for `COc1ccc(-c2cs/c(=N\c3ccccc3)n2CC(O)c2ccc([N+](=O)[O-])cc2)cc1` (configuration not stated), the GI50 is inactive: > 100 µM. As to `COc1ccc(C2Oc3ccc(Cl)cc3C=C2[N+](=O)[O-])cc1` (configuration not stated), the GI50 was inactive: > 100 µM. For the compound `CC(=N\N)/C(C)=N/N=C(C)/C(C)=N/N=C(C)/C(C)=N/N=C(C)/C(C)=N/N`, the GI50 was inactive: > 100 µM. With `COCCOC1=CC(=O)c2c(O)ccc(O)c2C1=O`, the GI50 is inactive: 1.42 µM. With `[O-][Cl+3]([O-])([O-])[O-].c1ccc(-c2[o+]c(-c3ccccc3)c(-c3ccccc3)c(-c3ccccc3)c2-c2ccccc2)cc1`, the GI50 is inactive: > 100 µM. Under `CCOC(=O)c1c(-c2ccccc2)c(OC)cn1C` stands inactive: > 10 µM; under `Nc1nc(Cl)cc(OCC2(CO)CCCCC2)n1`, inactive: > 100 µM; under `O=C(OCC1OC(n2nc(Cn3nnc(-c4cccnc4)n3)n(-c3cccc4ccccc34)c2=S)C(OC(=O)c2ccccc2)C1OC(=O)c1ccccc1)c1ccccc1` (configuration not stated), inactive: > 100 µM. For the compound `O=C1C2C=CC(n3[nH]c(=O)n(Cc4ccccc4)c3=O)CC2C(=O)N1c1ccc(Br)cc1` (configuration not stated), the GI50 was inactive: > 100 µM. In the case of `C=C(c1ccccc1)C1ON(C)CCc2cc(OC)c(OC)cc21` (configuration not stated), the GI50 was inactive: > 100 µM. Take `N[C@H]1c2c(Br)sc(Br)c2C(=O)[C@H]1O`: the GI50 is inactive: 19.5 µM. Under `Cc1ccc(S(=O)(=O)N2CCCSCCN(S(=O)(=O)c3ccc(C)cc3)CCCSCC2)cc1` stands inactive: > 100 µM. Consider `COc1ccc2nc3cc(Cl)ccc3c(NCCC(=O)OCC(O)C(O)C(O[C@H](C)C(=O)NC(C)C(=O)NC(CCC(N)=O)C(=O)OCc3ccccc3)C(C=O)NC(C)=O)c2c1` (some centres not stated), for which the GI50 was inactive: 19.2 µM. Regarding `O=C(c1ccc(Cl)cc1)N(C(=O)N1CCCCC1)c1ccccc1`, the GI50 was inactive: 65.6 µM.

As to `Cc1cc(Nc2ccc(S(=O)(=O)O)cc2)c2ccccc2n1`, the GI50 was inactive: > 100 µM. With `Cc1ccc2nc(-n3c(/C=C/c4ccccc4O)nc4ccccc4c3=O)sc2c1`, the GI50 was inactive: > 100 µM. As to `Clc1ccc2c(c1)C1C(CO2)C(c2ccccc2)=NN1c1ccccc1` (configuration not stated), the GI50 was inactive: > 100 µM. Consider `CC(C)(C)/N=C1\C(=O)C2(C)CCC1C2(C)C` (configuration not stated), for which the GI50 is inactive: > 100 µM. Turning to `Cc1cc2c(cc1Cl)SC(NN(C)C)=NS2(=O)=O`, the GI50 was inactive: > 10 µM.

As for `CCNc1nnc(CSc2nc(-c3ccccc3)c(-c3ccccc3)[nH]2)s1`, the GI50 is inactive: 18.5 µM.

As for `CC1(C)CCC[C@]2(C)[C@@H]1CC[C@@]13O[C@@H]1C1=C(CO)C(=O)OC1=C[C@@H]23`, the GI50 is inactive: 19.7 µM. Under `CN(C)CCCNC(=O)c1cc(NC(=O)c2cc(NC(=O)[C@H]3C[C@@H]3C(=O)Nc3cc(C(=O)Nc4cc(C(=O)NCCCN(C)C)n(C)c4)n(C)c3)cn2C)cn1C` stands inactive: > 100 µM. Consider `O=C(O)CCNc1ncc2c(n1)-c1ccccc1OC2`, for which the GI50 was inactive: > 100 µM.

Regarding `CCOc1ccc(-n2nnc3c(N)nc(N)nc32)cc1`, the GI50 was inactive: > 100 µM. `C=C(C)CCC1CCCCC(CN(C)C)C1=O` (configuration not stated): the GI50 was inactive: > 100 µM. Take `CC(C)c1cccc(C(C)C)c1OS(=O)(=O)NC(=O)OC(C(F)(F)F)C(F)(F)F`: the GI50 is inactive: 46.7 µM.

As to `Clc1cccc(Cl)c1C1SCC2=Nc3ccccc3CN21` (configuration not stated), the GI50 is inactive: 19.4 µM. Under `CC(C)=CCC/C(C)=C/CC/C(C)=C/C1CCC(=O)C1(C)C` (configuration not stated) stands inactive: 34.1 µM. Regarding `CC(C)(C)OC(=O)N1C(C2=COc3ccccc3O2)=COc2ccccc21`, the GI50 was inactive: 34.1 µM. As for `C/C(=N\Nc1nc2ccccc2s1)c1ccncn1`, the GI50 was active: 1.09 µM. For the compound `Cc1c(/C=N/N=C/c2[nH]c(C(=O)OC(C)(C)C)c(C)c2C)[nH]c(C(=O)OC(C)(C)C)c1C`, the GI50 is inactive: > 100 µM.

Regarding `O=C(C(Cl)=C(N1CCCCC1)N1CCCCC1)C(Cl)Cl`, the GI50 is inactive: > 100 µM.

Regarding `CCN(C(=O)/C=C/c1ccco1)c1ccccc1`, the GI50 is inactive: > 100 µM.

`CCCC(C)n1c(C)nc2c1C(=O)c1ccccc1C2=O` (configuration not stated): the GI50 is inactive: 48.2 µM. Under `O=C(CC(=O)c1cccc2ccccc12)C(=O)NC1C2CC3CC(C2)CC1C3` (configuration not stated) stands inactive: > 100 µM; under `Cc1cc(NCCCCCCCCCC[n+]2c(C)cc(N)c3ccccc32)c2ccccc2n1`, inactive: 2.99 µM.

`N=C(N)NCCN1CC2CCC(CC2)C1`: the GI50 was inactive: > 100 µM. For `CC1CC(C#N)=C2NCCN2C1=O` (configuration not stated), the GI50 was inactive: > 100 µM. Under `Cc1nnc2n1-c1ccccc1C(=S)N1CSCC21` (configuration not stated) stands inactive: > 100 µM. For `COC(=O)[C@@]12C(=O)CCC(=O)C1C1C(=CC2C)O[C@@H]2OC3(CCCCC3)O[C@H]12` (some centres not stated), the GI50 was inactive: > 100 µM. Turning to `C[C@@H](NC1CCCC[C@@H]1O)c1ccccc1` (some centres not stated), the GI50 is inactive: > 100 µM. On to `COC(=O)C1C(=O)NC2(C)CC1c1ccccc1O2` (configuration not stated), for which the GI50 was inactive: > 100 µM. For the compound `CCCCCC[C@@H]1CCC2C(CO)[C@@H](O)CC[C@@H]2C1` (some centres not stated), the GI50 is inactive: 16.5 µM. As to `CC12OC3CC(O1)C1(C=O)C4CCC5(C)C(c6ccc(=O)oc6)CCC5(O)C4CCC1(C3)O2` (configuration not stated), the GI50 is active: 0.34 µM.

`CC(O)=NC(Cc1ccc2ccccc2c1)C(O)=NC(Cc1ccc(Cl)cc1)C(O)=NC(Cc1c[nH]c2ccccc12)C(O)=NC(CO)C(O)=NC(Cc1ccc(O)cc1)C(O)=NC(CCCN=C(N)N)C(O)=NC(CC(C)C)C(O)=NC(CCCN=C(N)N)C(=O)N1CCCC1C(O)=NC(C)C(=N)O` (configuration not stated): the GI50 is inactive: 20.5 µM. Turning to `c1cc2c(cc1NC1=NCCO1)CCC2`, the GI50 is inactive: > 10 µM. In the case of `COc1ccc2cc(CNCCCCCCCCNCc3ccc4cc(OC)ccc4c3)ccc2c1`, the GI50 is inactive: 3.93 µM.
